Experimental data: PubChem BioAssay AID1671193 (National Center for Advancing Translational Sciences (NCATS), 2021)
Among all 150,000 compounds or so, about 180 (0.12%) were called active. This list was built around the results that the source calls inconclusive (neither active nor inactive); the mix of calls is not that of the screen. The call rests on the fitted dose curve; in most records, active means well fitted cell-killing curve with a large enough effect; inconclusive means small, poorly fitted or top-dose-only effect, or effect the other way; inactive means flat fitted curve, though single readings scatter. Where the call is inconclusive, the potency comes from a doubtful curve fit.

Assay: GF-AFC viability counterscreen for inhibitors of alpha-synuclein gene (SNCA) expression; further: nearly all actives have a fitted effect of over 30% in size
Settings: HEK-293-SNCA-luc viability, GF-AFC fluorescence, 24 h; series mostly up to 57.1 µM
Method in brief: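 HEK-293-SNCA-luc cells (1500/well) plated 24 h, then exposed 24 h to a dilution series; GF-AFC added 30 min at 37C, fluorescence 405/540 nm; normalised to medium-only and DMSO wells, Hill fit.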
Potency means the concentration at half of the fitted maximal effect; tags describe the fitted curve by direction and shape.

| SMILES | Potency |
| --- | --- |
| O=C(C[C@@H]1CCNC[C@@H]1Cc1cc(-c2ccc(F)cc2)on1)NCc1cccnc1 | inactive |
| COc1ccc(C(=O)NC(C)c2nncn2C)cc1OC1CCN(C(C)=O)CC1 (stereo unspecified) | inactive |
| CS(=O)(=O)c1ccc(-c2nc(C(=O)NCc3cccnc3)n3ccncc23)cc1 | inconclusive: 22.4 µM [rising, single point] |
| CC1CCN(S(=O)(=O)c2ccc3c(c2)N(CC(=O)NCCc2ccccc2)C(=O)CO3)CC1 | inconclusive: 31.6 µM [cytotoxic, single point] |
| COc1cc(=C2C=c3ccccc3=N2)[nH]c1=Cc1[nH]c(C)cc1C | inconclusive: 19.2 µM [cytotoxic, partial curve] |
| Cc1ccc(NS(=O)(=O)c2ccc3[nH]c4c(c3c2)CCCC4)cc1N(C)C | inactive |
| O=C(O)C1=NOC2CN(Cc3ccc(F)cc3)CC12 (stereo unspecified) | inactive |
| CCOc1ccc(CC(=O)Nc2cccn3nc(C)nc23)cc1 | inactive |
| O=C1C(Cl)=C(NCCN2CCOCC2)C(=O)c2ncccc21 | inconclusive: 30.4 µM [cytotoxic, single point] |
| O=C1[C@H]2CN(Cc3ccc(F)c(F)c3)C[C@H]2C(=O)N1Cc1ccc2c(c1)OCO2 | inactive |
| CCOC(=O)C1CCCN(C(=O)c2cn3cc(-c4cccc(OC)c4)sc3n2)C1 (stereo unspecified) | inconclusive: 31.6 µM [cytotoxic, partial curve, poor fit] |
| CCC[C@H]1CN(Cc2ccccc2C#N)C[C@@H]1NS(C)(=O)=O | inconclusive: 3.98 µM [cytotoxic, single point] |
| COc1cccc(CNC(=O)Cn2ccn3nc4c(c3c2=O)CCCCC4)c1OC | inconclusive: 3.16 µM [cytotoxic, full curve, poor fit] |
| O=C1NCCCCCCN(S(=O)(=O)c2cccc3cccnc23)[C@H]2CCCC[C@@H]12 | inconclusive: 1.78 µM [cytotoxic, full curve, poor fit] |
| COc1ccccc1CN1CCNc2cnc(-c3ccccc3)cc2C1 | inactive |
| O=C(/C=C/c1ccc(O)c(O)c1)OCc1ccccc1O[C@@H]1O[C@H](CO)[C@@H](O)[C@H](O)[C@H]1O | inconclusive: 0.0065 µM [cytotoxic, full curve, poor fit] |
| COc1cc(NC(=O)NC(C)c2c(-n3cccc3)sc3c2CCCC3)cc(OC)c1OC (stereo unspecified) | inconclusive: 28.2 µM [cytotoxic, single point] |
| Cn1c(=O)c(-c2ccc(Cl)cc2)nc2cnc(N3CCNCC3)nc21 | inconclusive: 15.8 µM [rising, partial curve, poor fit] |
| COCC(=O)N[C@@H]1CN(C2CCCCCC2)CC[C@@H]1CO | inactive |
| Cc1noc(C)c1-c1nc(N(C)Cc2ccco2)c2ccccc2n1 | inconclusive: 39.8 µM [cytotoxic, single point] |
| O=C(NCc1ccc(F)cc1)c1ccc2nnc(-c3ccoc3)n2c1 | inactive |

| SMILES | Potency |
| --- | --- |
| C[S+](=O)([O-])c1ccc(-c2cc(C(=O)NCC3CC3)nn3cccc23)cc1 | inconclusive: 11.2 µM [cytotoxic, partial curve, poor fit] |
| O=C(N[C@@H]1C[C@H](Cn2cc(CN3CCS(=O)(=O)CC3)nn2)[C@@H](O)[C@H]1O)C1CCCC1 | inactive |
| Cc1ccc(-n2c(=O)c3c(C)c(C)sc3n(CC(=O)NCc3ccccc3)c2=O)cc1C | inconclusive: 0.891 µM [cytotoxic, full curve, poor fit] |
| CC(=O)N1C[C@@H](C(=O)N2CCN(c3ccccn3)CC2)[C@H](c2nc(C)no2)C1 | inconclusive: 4.47 µM [rising, partial curve, poor fit] |
| CCN(CC)CCCCNc1ncc2c(n1)N(C)C(=O)N(c1c(Cl)c(OC)cc(OC)c1Cl)C2 | inconclusive: 24.1 µM [cytotoxic, partial curve] |
| CC1=C[C@@H](CNCc2ccc(F)cc2)[C@H](C(C)C)C[C@H]1Cc1nnc(-c2cncn2C)o1 | inconclusive: 35.5 µM [cytotoxic, single point] |
| COc1ccc(C2=CC(c3ccccc3Cl)n3nc(-c4ccc(Cl)cc4)nc3N2)cc1 (stereo unspecified) | inconclusive: 31.6 µM [rising, partial curve, poor fit] |
| Cc1ccccc1CSc1cn(CC(=O)N2CCCCCC2)c2ccccc12 | inconclusive: 31.6 µM [cytotoxic, partial curve, poor fit] |
| Cn1cnc(S(=O)(=O)N2CCCC(OCc3noc(-c4cccnc4)n3)C2)c1 (stereo unspecified) | inconclusive: 7.08 µM [cytotoxic, single point] |
| Cc1cccc(N2CCN(C(=O)Cn3nc(Cc4cccnc4)c4ccccc4c3=O)CC2)c1C | inconclusive: 35.5 µM [cytotoxic, single point] |
| COc1ccc(CCNc2nc3c(-c4cccc(C)c4)nnn3c3ccccc23)cc1OC | inconclusive: 3.16 µM [rising, partial curve, poor fit] |
| CCn1nc(C)c(C(C)NCc2cccc(OC)c2OCCN2CCOCC2)c1C (stereo unspecified) | inactive |
| CC(C)(C)c1ccc(C(=O)N2CCC(c3n[nH]c(=O)n3Cc3ccc(F)cc3)CC2)cc1 | inconclusive: 20 µM [cytotoxic, partial curve, poor fit] |
| O=c1c(-c2cccs2)nc2cnc(Nc3ccccc3)nc2n1C[C@H]1CCCO1 | inconclusive: 3.16 µM [rising, full curve, poor fit] |
| CC(=O)N1CCC(N2C[C@H](O)C[C@H]2c2nc(CS(=O)(=O)c3ccc(C)cc3)no2)CC1 | inactive |
| CC(=O)N1CC2(Cc3ccccc31)CN(C(=O)c1ccccc1C)C2 | inactive |
| O=C(c1ccccc1F)N1CCn2c(nn(-c3ccc(F)cc3)c2=O)C1 | inconclusive: 8.91 µM [cytotoxic, single point] |
| COc1ccc2nc(C)cc(Nc3ccc(Cl)c(Cl)c3)c2c1 | inconclusive: 3.55 µM [cytotoxic, full curve, poor fit] |
| CN(Cc1ccc(-c2ccccc2)cc1)S(C)(=O)=O | inactive |
| OC[C@@H]1CN(CC2CC2)C[C@H]1c1nc(-c2ccncc2)no1 | inactive |
